# Source: article PMC12136788
# The list shows a part of the results.
# B1: ENSG00000117906:stop:overlap|stop_codon|ENSG00000117906|stop_codon|NA|stop_codon (ssRNA)
# RNA: GGGAGUUCUACAGUCCGACGAUCAGUCCUUUAGGAAGCAUCAAUGUGGAGGUUUGGGGCUCCAUCCUCAGAGCCAGUCUGCUUAGCUUCACAUUUAGCUCCAGCACUUCACGGUUGUGUAACUUUGGCUUCACUUAAAGGACACAACAGAGGAUUGAGCAUCA
# B2: chr1:184691659:184691688:-|3pUTR|ENSG00000116406|msi1_unk|FALSE|overlapping (ssRNA)
# RNA: GGGAGUUCUACAGUCCGACGAUCCUCCAACGUUGUAAUUACAACUCUACAUUCAUUUACUUACUUGACAUACUGCCACAAAGUAGUUUUUGAGUUCAUUAAAAAUUCCAAAGGCAUUAGUUGUUUUUUUUUUUUUUAGUGUUUCAACAGAGGAUUGAGCAUCA
# B3: chr6:105100707:105100870:-|3pUTR|ENSG00000112276|msi1|FALSE|unique (ssRNA)
# RNA: GGGAGUUCUACAGUCCGACGAUCUGAGAUAUAUAUUUUCACAGUCUUUUCUAGAUAUAUUAUUGUUUUAACUUAACAAAUCUUAGCAAUCUCUCAAUGCCUUUUCACUUAUUUUUUUCCAAGUUAUGAUUCUUUUUCCUCACACAACAGAGGAUUGAGCAUCA
# B4: chr5:40972473:40972581:+|CDS|ENSG00000112936|unk|total|mutant (ssRNA)
# RNA: GGGAGUUCUACAGUCCGACGAUCAAAACCUUUCUACACAGUUGGUGAGAAGGUGACUGUUUCCUGUUCAGGUGGCAUGUCCUCCGAAGGUCCUUCAGCAUUUCUCUGUGGCUCCAGCCUUAAGUGGAGUCCUGAGAUGAAGAACAACAGAGGAUUGAGCAUCA
# B5: chr1:153948111:153948329:-|CDS|ENSG00000160741|control|control|control (ssRNA)
# RNA: GGGAGUUCUACAGUCCGACGAUCCCUGGCCGGAGUGCCUGGCUUUGAGGUGUCAGCAGCUGGAUUGGAGCUAGGGCUUGGGCUAGAAGAUGAGCUGCGCAUGGAGCCACUGGGCCUGGAAGGGCUAAACAUGCUGAGUGACCCCAACAGAGGAUUGAGCAUCA
# B6: chr2:27041412:27041530:+|3pUTR|ENSG00000119777|msi1_unk|FALSE|overlapping (ssRNA)
# RNA: GGGAGUUCUACAGUCCGACGAUCACUUCAAAAUGCCCAGCCUGCCCCAAAUGCCUCUAAGCCCCUCCCUGUCCCCUCCCUUGUAGUCCUACUUCUUCCAACUUUCCAUUCCCCAUCAUGCUGGGGGUCUUGGUCACAAGGCUCCAACAGAGGAUUGAGCAUCA
# B7: chr17:30468017:30468118:+|3pUTR|ENSG00000108582|unk|total|mutant (ssRNA)
# RNA: GGGAGUUCUACAGUCCGACGAUCGCUAAAAUUUUGGGGAUAUGAUUUGGGUCUUUGAUUAAUGUCAGCUGAACUUGGAUUUCCCGUUCAUGAAGAAAUCUCUCCCAAUACCCAUUUAUCCUAUUUUCCGCAAUAAUUCGUUAACAACAGAGGAUUGAGCAUCA
# B8: chr17:79834786:79834887:-|CDS|ENSG00000141582|unk|total|mutant (ssRNA)
# RNA: GGGAGUUCUACAGUCCGACGAUCAAUGAUGCCGGCCCCCAAAGAGGCUGUGACGGGCAACGGGAUUGGGGGCAAGAUGAAGACCGUCAAGAACAAGAACAAGAACGGACGCAUCGUGAUCGUGAUGAGCAAAUACAUGGAGAACAACAGAGGAUUGAGCAUCA
# B9: chr15:34852525:34852627:-|3pUTR|ENSG00000021776|unk|total|mutant (ssRNA)
# RNA: GGGAGUUCUACAGUCCGACGAUCCCCGCAUUUCCCAAACUUAUCCGAGCAUAAAACUUUGUUUUUGUUUUUUUUUAAUAAGACCGGCCGCUAUUUCCUCCGAACACAGUUUGGGAAACUUUUUGUUCAUUUGUUUUAAUAAGACAACAGAGGAUUGAGCAUCA
# B10: chr11:58422334:58423261:-|CDS|ENSG00000172365|control|control|control (ssRNA)
# RNA: GGGAGUUCUACAGUCCGACGAUCACACACUAGUGAGGUGAUUCUGGUUUUUAUGUCAAGCUUUAAUAUCUUUUUUGUUCUUCUAGUUAUCUUUAUCUCCUACUUGUUCAUAUUCAUCACCAUCUUGAAGAUGCAUUCAGCUAACAACAGAGGAUUGAGCAUCA
# B11: ENSG00000107863:be:win_4751|CDS|ENSG00000107863|bound_else_gene|NA|bound_elsewhere_windowed (ssRNA)
# RNA: GGGAGUUCUACAGUCCGACGAUCCCUCAGAUUAUUCCACCACAUCGUCUGCUACAUACUUGACUAGCCUGGACUCCAGUCGACUGAGCCCUGAGGUGCAAUCCGUGGCAGAGAGCAAGGGGGACGAGGCAGAUGACGAGAGAACAACAGAGGAUUGAGCAUCA
# B12: chr15:60490033:60490134:-|3pUTR|ENSG00000069667|unk|total|mutant (ssRNA)
# RNA: GGGAGUUCUACAGUCCGACGAUCUGCUGGAUUUGGGACAUGCUUUUCUCUUUAAAUACAUAAUAUCAUUAUAUAAAUUAUUCCCGAGUGUAUUUAAUCCGGAUAAAAUUACUUCCUCCGUAUGGAUAUUUGACAUCUACCGGGCAACAGAGGAUUGAGCAUCA
# B13: chr19:35623609:35623710:+|3pUTR|ENSG00000249115|unk|total|mutant (ssRNA)
# RNA: GGGAGUUCUACAGUCCGACGAUCGCCUUCCCGUUUGUACCGUUUCUUUUUUUACAUGUAAAUCAGCCAUUUGGAAUUUAUCCCCGCACAUGGAUCCAAUUUUGUCUUAUUUUACAUAUAUCCCCGCCGCACUUACUGAAAUUCCAACAGAGGAUUGAGCAUCA
# B14: chr6:63788104:63788249:-|CDS|ENSG00000188107|control|control|control (ssRNA)
# RNA: GGGAGUUCUACAGUCCGACGAUCUAAAUCCAUUAUCGCCCCAGGAAGACUGGUUGGUCUCAAUGUCUUCAGUCAGUUUUAUGUAGGUGGCUACAGUGAAUACACUCCAGAUCUCUUACCAAAUGGAGCAGAUUUUAAAAAUGGCAACAGAGGAUUGAGCAUCA
# B15: chr5:41382290:41382405:-|CDS|ENSG00000182836|unk|FALSE|unique (ssRNA)
# RNA: GGGAGUUCUACAGUCCGACGAUCGGCCAAAAAGCUCAUGCGGAAAUGGUUAGCCACUCAGACAAUGAAUUUUACUGGCCAGCUAGGAGCUGGAAUUCGUUAUUUUGAUCUUCGAAUUUCCACCAAGCCCAGAGACCCCGACAACAACAGAGGAUUGAGCAUCA
# B16: ENSG00000135299:stop:overlap|stop_codon|ENSG00000135299|stop_codon|NA|stop_codon (ssRNA)
# RNA: GGGAGUUCUACAGUCCGACGAUCACAUUAAAAGUUUAGAAGAGGAACUUGCCAAACUAAGGACUAGGGUGCAGAAGGAAAAUUAGCACCAAUAAAGAGGAAAUAUGAAAGGAUUCUUGAAGAUUUCCAGUUUUGCAACUGCAUCAACAGAGGAUUGAGCAUCA
# B17: chr17:55392621:55394333:-|three_prime_utr|ENSG00000108960|control|control|control (ssRNA)
# RNA: GGGAGUUCUACAGUCCGACGAUCACUGUGAAAGUAUAAAGGCUGUGUUCUGGAAUUUUCUGCCUCACAGCAAAUAAAUAAGGUAGUGAAUUAAUUAUUCAUUCCAUUCCACUAUCAUGAAGGACUCUGAAUAGACUUGGCCAACAACAGAGGAUUGAGCAUCA
# B18: chr7:151395775:151396196:-|CDS|ENSG00000187260|control|control|control (ssRNA)
# RNA: GGGAGUUCUACAGUCCGACGAUCCAGCGGCUGCUGCCACCAGACGCUGCGGGGCCACACGGGUGCAGUGCUGUGCCUAGUGCUAGACACGCCCGGCCACACGGCCUUCACAGGCAGCACCGACGCCACCAUCCGUGCCUGGGACAACAGAGGAUUGAGCAUCA
# B19: chr11:36273890:36273991:-|3pUTR|ENSG00000110442|msi1|total|mutant (ssRNA)
# RNA: GGGAGUUCUACAGUCCGACGAUCGGUGAAGAAGUGGGAAUAAUUGGAACUAAACAACAGUUCUAAAACUUCCAUGAUUUUUGCCGCUUCUUUUGUCCCCAAGUUGAAGCUUUUGGCCAGUACCUUCUCCCGUUUUUAAAGAUGCAACAGAGGAUUGAGCAUCA
# B20: chr8:103442975:103443076:+|3pUTR|ENSG00000164934|msi1|total|mutant (ssRNA)
# RNA: GGGAGUUCUACAGUCCGACGAUCGGACCCGAUUAAUUGCAAACAUUUCCGUUAUAUGUGCCGAGCUUUAUUGUUACUCCUUUCCGCUACCCUGAAAAAUGAUCCUUAAAGGUGGCCCCGUUGGUAAGACUGUUUUAUCCUUAACAACAGAGGAUUGAGCAUCA
# B21: ENSG00000147256:stop:overlap|stop_codon|ENSG00000147256|stop_codon|NA|stop_codon (ssRNA)
# RNA: GGGAGUUCUACAGUCCGACGAUCCAUUGCUCCGUGUGCCCCGGGAGAAGGAGGCCAAAACUGGCGUCAGCUACUUCUUUCCUUAGAUGUUUUUCCUUCUAUAAGGUGCCAGACAGGGGAAAAGGGUGGGGGUACAUCUGGGAUCAACAGAGGAUUGAGCAUCA
# B22: chr5:148442723:148442824:+|3pUTR|ENSG00000145868|unk|total|mutant (ssRNA)
# RNA: GGGAGUUCUACAGUCCGACGAUCUUAUGAGCUUAAAAAAAAGUGAGUUUGAGAGGGAAAUGGAAAAGUUUCCAGAGUAUUUCCCGUAAUUUAUUUCCACAUUGAAUUGUGUAUAUGCUUUAUCUUGAAUAUAAAAUAAAAGUUCAACAGAGGAUUGAGCAUCA
# Molecular target: MSI1 full-length (mouse, UniProt Q61474 1-362)
# UniProt Q61474, sequence (Q61474 whole entry): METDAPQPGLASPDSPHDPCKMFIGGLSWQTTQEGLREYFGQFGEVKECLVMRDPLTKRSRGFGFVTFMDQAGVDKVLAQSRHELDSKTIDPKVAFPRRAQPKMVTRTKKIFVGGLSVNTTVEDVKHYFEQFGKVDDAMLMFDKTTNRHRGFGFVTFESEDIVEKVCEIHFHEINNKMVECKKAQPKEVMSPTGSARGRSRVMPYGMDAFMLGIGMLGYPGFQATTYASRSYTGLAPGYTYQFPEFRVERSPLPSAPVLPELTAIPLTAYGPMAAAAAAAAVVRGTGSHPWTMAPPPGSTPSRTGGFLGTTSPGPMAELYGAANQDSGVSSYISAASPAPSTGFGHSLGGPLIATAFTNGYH
# Assay: nsRBNS (natural sequence RNA bind-n-seq); RBNS binding buffer (assumed for nsRBNS): 25 mM Tris pH 7.5, 150 mM KCl, 3 mM MgCl2, 0.01% Triton X-100, 500 ug/ml BSA, 20 U/ml SUPERase-In, 4 C; UNK is unkempt and MSI1 is Musashi-1; names of the RNAs are library labels; protein concentration not given here; high values mean tight binding
row,Binder,binding signal [enrichment R]
1,B1,0.431
2,B2,6.72
3,B3,7.46
4,B4,0.35
5,B5,0.515
6,B6,1.21
7,B7,0.32
8,B8,0.39
9,B9,0.769
10,B10,23.6
11,B11,0.467
12,B12,1.77
13,B13,0.817
14,B14,0.451
15,B15,0.308
16,B16,0.349
17,B17,0.353
18,B18,0.339
19,B19,0.28
20,B20,0.264
21,B21,0.404
22,B22,1
